Laboratory results published in the supplement of paper PMC4967469.
A lower IC50 marks a more sensitive line; a limit (>, <) means that the fit lies beyond the doses tested. The AUC spans the tested range (256-fold, ending at the top dose) of the same fit; values near 1 show little effect. For some of these results: An inferred top dose was derived from the fitted curves, not read from the paper.

Tests used:
Assay in all cases: Viability of human cancer cell lines after 72 h of drug (GDSC screen)
BMX-IN-1 (QL-XII-61) = compound: C=CC(=O)Nc1cc(-n2c(=O)ccc3cnc4ccc(-c5ccc(NS(C)(=O)=O)cc5)cc4c32)ccc1C [BMX-IN-1 (QL-XII-61)]; details: top dose 10 µM; top dose inferred
Procedure: (§1)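 Human cancer cell lines in 384-well plates, medium with 10% serum, drug for 72 h over a 256-fold dose range (nine 2-fold or five 4-fold steps up to the top dose). Adherent lines were fixed and stained with the nucleic acid dye Syto60, suspension lines read with resazurin; signal relative to control wells, capped at 0 and 100%. One two-parameter sigmoid per drug and line, fitted in a mixed model over all curves with the slope shared within a line.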

17-AAG = compound: C=CCNC1=C2C[C@@H](C)C[C@H](OC)[C@H](O)[C@@H](C)/C=C(\C)[C@H](OC(N)=O)[C@@H](OC)/C=C\C=C(/C)C(=O)NC(=CC1=O)C2=O [17-AAG]; details: top dose 1 µM
Procedure: as §1

UNC1215 = compound: O=C(c1ccc(C(=O)N2CCC(N3CCCC3)CC2)c(Nc2ccccc2)c1)N1CCC(N2CCCC2)CC1 [UNC1215]; details: top dose 1 µM; top dose inferred
Procedure: as §1

Vismodegib = compound: CS(=O)(=O)c1ccc(C(=O)Nc2ccc(Cl)c(-c3ccccn3)c2)c(Cl)c1 [Vismodegib]; details: top dose 10 µM; top dose inferred
Procedure: as §1

CCT018159 = compound: CCc1cc(-c2n[nH]c(C)c2-c2ccc3c(c2)OCCO3)c(O)cc1O [CCT018159]; details: top dose 10 µM; top dose inferred
Procedure: as §1

OSI-027 = compound: COc1cccc2cc(-c3nc([C@H]4CC[C@H](C(=O)O)CC4)n4ncnc(N)c34)[nH]c12 [OSI-027]; details: top dose 20 µM
Procedure: as §1

BIX02189 = compound: CN(C)Cc1cccc(N=C(c2ccccc2)c2c(O)[nH]c3cc(C(=O)N(C)C)ccc23)c1 [BIX02189]; details: top dose 20 µM; top dose inferred
Procedure: as §1

TG101348 = compound: Cc1cnc(Nc2ccc(OCCN3CCCC3)cc2)nc1Nc1cccc(S(=O)(=O)NC(C)(C)C)c1 [TG101348]; details: top dose 10.24 µM
Procedure: as §1

VX-11e = compound: Cc1cnc(Nc2ccc(F)cc2Cl)nc1-c1c[nH]c(C(=O)N[C@H](CO)c2cccc(Cl)c2)c1 [VX-11e]; details: top dose 5.12 µM; top dose inferred
Procedure: as §1

Cell Line	AUC (BMX-IN-1 (QL-XII-61))	IC50 (BMX-IN-1 (QL-XII-61))	AUC (17-AAG)	IC50 (17-AAG)	AUC (UNC1215)	IC50 (UNC1215)	AUC (Vismodegib)	IC50 (Vismodegib)	AUC (CCT018159)	IC50 (CCT018159)	AUC (OSI-027)	IC50 (OSI-027)	AUC (BIX02189)	IC50 (BIX02189)	AUC (TG101348)	IC50 (TG101348)	AUC (VX-11e)	IC50 (VX-11e)
A549 (lung adenocarcinoma, adherent)	0.981	> 10 µM	0.154	0.00449 µM	0.974	> 1 µM	0.957	> 10 µM	0.764	4.08 µM	–	–	–	–	–	–	–	–
CADO-ES1 (Ewing sarcoma, suspension)	0.957	> 10 µM	0.988	> 1 µM	0.984	> 1 µM	0.976	> 10 µM	0.983	> 10 µM	0.167	0.118 µM	0.891	> 20 µM	0.863	9.09 µM	0.988	> 5.12 µM
CL-34 (large intestine, adherent)	0.931	> 10 µM	0.876	> 1 µM	0.979	> 1 µM	0.984	> 10 µM	0.987	> 10 µM	–	–	–	–	–	–	–	–
D-423MG (glioma, adherent)	0.833	8.5 µM	0.875	> 1 µM	0.976	> 1 µM	0.866	> 10 µM	0.852	> 10 µM	0.309	0.32 µM	0.879	> 20 µM	0.809	6.83 µM	0.965	> 5.12 µM
D-566MG (glioma, adherent)	0.952	> 10 µM	0.378	0.029 µM	0.984	> 1 µM	0.936	> 10 µM	0.788	4.34 µM	0.383	0.597 µM	0.939	> 20 µM	0.766	3.73 µM	0.895	> 5.12 µM
DIFI (large intestine, adherent)	0.986	> 10 µM	0.617	0.133 µM	0.984	> 1 µM	0.988	> 10 µM	0.973	> 10 µM	–	–	–	–	–	–	–	–
DOV13 (ovary, adherent)	0.864	> 10 µM	0.378	0.0272 µM	0.979	> 1 µM	0.983	> 10 µM	0.857	> 10 µM	0.816	13.3 µM	0.962	> 20 µM	0.984	> 10.2 µM	0.929	> 5.12 µM
EMC-BAC-1 (lung adenocarcinoma, adherent)	0.912	> 10 µM	0.58	0.107 µM	0.982	> 1 µM	0.973	> 10 µM	0.948	> 10 µM	0.687	4.52 µM	0.954	> 20 µM	0.642	1.68 µM	0.861	> 5.12 µM
EMC-BAC-2 (lung adenocarcinoma, adherent)	0.94	> 10 µM	0.573	0.103 µM	0.976	> 1 µM	0.982	> 10 µM	0.951	> 10 µM	0.404	0.65 µM	0.966	> 20 µM	0.68	2.26 µM	0.978	> 5.12 µM
ESO26 (oesophagus, adherent)	0.909	> 10 µM	0.342	0.0234 µM	0.988	> 1 µM	0.989	> 10 µM	0.96	> 10 µM	0.723	5.12 µM	0.948	> 20 µM	0.797	4.53 µM	0.919	> 5.12 µM
ESO51 (oesophagus, semi-adherent)	0.973	> 10 µM	0.704	0.301 µM	0.973	> 1 µM	0.958	> 10 µM	–	–	0.625	3.18 µM	0.948	> 20 µM	0.909	> 10.2 µM	0.566	0.52 µM
EW-22 (Ewing sarcoma, adherent)	0.911	> 10 µM	0.922	> 1 µM	0.987	> 1 µM	0.988	> 10 µM	0.964	> 10 µM	–	–	–	–	–	–	–	–
FLO-1 (oesophagus, adherent)	0.948	> 10 µM	0.502	0.0637 µM	0.97	> 1 µM	0.95	> 10 µM	0.901	> 10 µM	0.683	5.15 µM	0.796	14.5 µM	0.777	6.16 µM	0.935	> 5.12 µM
HCC-366 (non-small cell lung carcinoma, adherent)	0.978	> 10 µM	0.949	> 1 µM	0.985	> 1 µM	0.988	> 10 µM	–	–	–	–	–	–	–	–	–	–
Hey (ovary, adherent)	0.939	> 10 µM	0.387	0.0312 µM	0.986	> 1 µM	0.984	> 10 µM	0.823	5.44 µM	0.331	0.435 µM	0.946	> 20 µM	0.851	7.16 µM	0.838	3.19 µM
JHOS-2 (ovary, adherent)	0.981	> 10 µM	0.842	0.882 µM	0.975	> 1 µM	0.981	> 10 µM	0.964	> 10 µM	0.74	6.92 µM	0.871	> 20 µM	0.962	> 10.2 µM	0.941	> 5.12 µM
